Data published in paper PMC12136788.
Some of the results follow.

B1: 220357383_220357503_2049_CDS_ENSG00000118873_ENST00000358951|human|control|control (ssRNA)
RNA: GGGAGUUCUACAGUCCGACGAUCAGAGAAUGGUGUGUCUAAAUGAAAAUCAAGGGAAUUUAAUUGACUGACAGACUCAUAGAGUUGCAGCAGUUUUAGUUUAUUGGCACAAAACUGUAGCAAUCCUUCAUCAACAGACUCAAGCAACAGAGGAUUGAGCAUCA
B2: chr2:217001844:217001845:+_ENSG00000079246_ENST00000392132|hu_hu|hu_hu_hu_mus_False|78_78 (ssRNA)
RNA: GGGAGUUCUACAGUCCGACGAUCACCAACUUGAGGAUUAGAUCUUUUGUCAUAAGCAUAUCGAACUAUGGCGACCAUGUUUAACUCAUCCAAAGCAUGAACGAGAGAGGAAAGGGCAACAGCUGCCGCCUCAUCAUCCUUUGCCAACAGAGGAUUGAGCAUCA
B3: chr1:109605286:109605287:-_ENSG00000197780_ENST00000461096|hu_mus|hu_hu_hu_mus_True|78_108 (ssRNA)
RNA: GGGAGUUCUACAGUCCGACGAUCAAGAACAAUAACAACAUUCAGUAACCUCUUUAACAAUUGUAAUCCUUAUUAUAAGCUAAGCAGAAUAAUAAUUUAAUACCGUAAGUGAACUACACACAAAGCCUGAACCGCGAAAAUGGUCAACAGAGGAUUGAGCAUCA
B4: chr2:144966258:144966259:-_ENSG00000121964_ENST00000344850|hu_mus|FALSE|FALSE (ssRNA)
RNA: GGGAGUUCUACAGUCCGACGAUCUGUGCGUGCUCUCCAGUGCCAUUUCUUUGCAGGAAGAGUGUACAACACGCAGUCAUCUAAUUCUUCUCGGAGCAGCUCUACCAGCUGUCGAUGGGAGCCUCCAUAAAAUGCCUCGAUGAUCAACAGAGGAUUGAGCAUCA
B5: chr10:106022761:106022762:+_ENSG00000148834_ENST00000369713|hu_mus|FALSE|FALSE (ssRNA)
RNA: GGGAGUUCUACAGUCCGACGAUCGAAUUCGUUCUCCAACGCUUCCCUUAGGUUCGGAGAGUCUUCCUUUCUCUUCGACCUAACAAAGCUUGCAAUCAAAGGCGGCACCUUAGAGAAUGACUCAAGGGUCAUCUUCUGACGUGCCAACAGAGGAUUGAGCAUCA
B6: chr12:90018129:90018130:-_ENSG00000070961_ENST00000261173|hu_hu|FALSE|FALSE (ssRNA)
RNA: GGGAGUUCUACAGUCCGACGAUCCUCAGCAAGCCAUGGUCUUUUCUGAACCCAGAAGGUGUCAAUGACAAAAUAUAAUACUAGAAUGAUAACUGUGAUGGCAGACAUCAACAGACCUGCUUUGCCAAUCUGAACAGCCAGUUUCAACAGAGGAUUGAGCAUCA
B7: chr4:76721835:76721836:+_ENSG00000138768_ENST00000264904|hu_mus|hu_hu_hu_mus_True|48_88 (ssRNA)
RNA: GGGAGUUCUACAGUCCGACGAUCGUUUGGCUGGGGUUUCUGAGACGUCUGGAAUACUAACUCAUGUUUGCUAAUAAAUCCUAGUUUUCUAUGAAAUUUCUCUUUGCCAAUCCUCUUCUCUAUUAGUUGCUUUAGUUUCUCUUUCAACAGAGGAUUGAGCAUCA
B8: chr6:145182920:145182921:-_ENSMUSG00000030265_ENSMUST00000032399|mus_mus|motif|central (ssRNA)
RNA: GGGAGUUCUACAGUCCGACGAUCCUCCUCUUGACCUGCUGUGUCGAGAAUAUCCAAGAGACAGGUUUCUCCAUCAAUUACGGCUUGUUUCCUGUAGGAGUCCUCUAUCGUAGGGUCAUACUCAUCCACAAAGUGAUUCUGAAUCAACAGAGGAUUGAGCAUCA
B9: chr2:48026839:48026840:+_ENSG00000116062_ENST00000540021|hu_hu|hu_hu_hu_mus_False|1_58 (ssRNA)
RNA: GGGAGUUCUACAGUCCGACGAUCAUAGUGAGCCACUAGCGUCCUAAAUCUGGAACAGUGGCGGUCAUCCGAAAACUGACCUAUGAAAAACUUGCCCAGUGAAGUGUCCACAAAGCAAACACCAUACACACGAGUGUGGCCAGACAACAGAGGAUUGAGCAUCA
B10: chr11:86029109:86029110:-_ENSMUSG00000018068_ENSMUST00000018212|mus_mus|FALSE|FALSE (ssRNA)
RNA: GGGAGUUCUACAGUCCGACGAUCGUGAACAAGUUUAGCAAUGUUGGGAUCUGCAAUGUACAUUUGGUGUAACAGGCAACAGAUAAGGCACUGAACUUCCCGAAGGUUACAGAGCAAAUUGUCUUCUCCUUCUUCUGUUUCUUUCAACAGAGGAUUGAGCAUCA
B11: chr7:141438946:141438947:+_ENSG00000106028_ENST00000265304|hu_mus|hu_hu_hu_mus_True|8_8 (ssRNA)
RNA: GGGAGUUCUACAGUCCGACGAUCGACGAAAUACCUGUAACACAGGUCUUCGAAACAUGGCUUCUGUUUUUCUUACAACCUAAUCUUUAGGCUUUUCCUAAAGGAAAGAAAGAAAAGAGAAAAAUGAGCAGGGGAUCAACUACACAACAGAGGAUUGAGCAUCA
B12: chr14:76904430:76904431:+_ENSMUSG00000022010_ENSMUST00000022587|mus_mus|mus_mus_mus_hu_True|18_98 (ssRNA)
RNA: GGGAGUUCUACAGUCCGACGAUCUGCAGCCAAAAACAGAGAGAGGGAAAAAAAGAGGGAACACCAGCAGCCUUGUAUAAGCUAGAUAAAAUCUUCUGGCUUUCCGCAGCCCAGGGAGUGAGAACGGACGGCAGCCCUAAUUUACAACAGAGGAUUGAGCAUCA
B13: chr5:71505325:71505326:+_ENSG00000131711_ENST00000296755|hu_mus|FALSE|FALSE (ssRNA)
RNA: GGGAGUUCUACAGUCCGACGAUCGGAACUGAGUUUCUGUUGUUUGUUUGUUUGUUUUUCCUUUACAUCAAAUAUCCUUGAUAGAAGAGGGGAUAUUGCACACAAAUAUCAUAAAAGCACUACAUAUUACUUUCACUGGAAACUCAACAGAGGAUUGAGCAUCA
B14: chr18:56819859:56819860:+_ENSG00000166562_ENST00000588875|hu_mus|hu_hu_hu_mus_True|18_78 (ssRNA)
RNA: GGGAGUUCUACAGUCCGACGAUCAACCUUGAUUACUCUGUGAACUAUCGGAAUGUCUCGUCCUUCAACCUUAAAAACAACUAUUUCACCAGCUCUGAUGGGGUCCUCCCGGAAAUUUGUGAGGAACAGCAGAUCUCCUCUGUGCAACAGAGGAUUGAGCAUCA

Molecular target: T1, UNK ZnF1-3 (human, UniProt Q9C0B0 31-174)
T1 sequence: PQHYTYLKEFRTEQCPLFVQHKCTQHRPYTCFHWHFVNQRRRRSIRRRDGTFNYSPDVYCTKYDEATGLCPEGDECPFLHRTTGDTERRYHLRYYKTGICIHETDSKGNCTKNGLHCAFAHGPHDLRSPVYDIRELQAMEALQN
Test: nsRBNS (natural sequence RNA bind-n-seq); RBNS binding buffer (assumed for nsRBNS): 25 mM Tris pH 7.5, 150 mM KCl, 3 mM MgCl2, 0.01% Triton X-100, 500 ug/ml BSA, 20 U/ml SUPERase-In, 4 C; UNK is unkempt and MSI1 is Musashi-1; names of the RNAs are library labels; protein concentration not given here; high values mean tight binding

Binder | binding signal
B1 | 0.565 enrichment R
B2 | 2.03 enrichment R
B3 | 0.99 enrichment R
B4 | 0.661 enrichment R
B5 | 0.202 enrichment R
B6 | 1.48 enrichment R
B7 | 0.407 enrichment R
B8 | 0.564 enrichment R
B9 | 1.19 enrichment R
B10 | 0.964 enrichment R
B11 | 0.556 enrichment R
B12 | 2.77 enrichment R
B13 | 1.01 enrichment R
B14 | 0.927 enrichment R
